Assay results from PubChem BioAssay AID1963576 (National Center for Advancing Translational Sciences (NCATS), 2024).
Out of some 46,000 compounds screened, about 60 (0.1%) were called active. Another 3% or so got no clear call; they are omitted. The call rests on the fitted dose curve; in most records, active means well fitted inhibition curve with a large enough effect; inconclusive means small, poorly fitted or top-dose-only effect; inactive means no such curve, though single readings can be large or run the other way. This is one part of the list.

Test: Primary qHTS assay for Inhibitors of ovarian cancer metastasis using an organotypic tumor microenvironment (TME) model. Further: nearly all actives have a fitted effect of over 65% in size.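 On activity change, negative = inhibition: plate controls were DMSO wells for no effect and tomatine positive control wells for full effect.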
Settings: SKOV3ip1-GFP adhesion/invasion on 3D omental model, fluorescence; series mostly up to 45.8 µM; activity change, negative = inhibition: at the top concentration
In short: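 qHTS, 4-pt dose (0.36-46 umol/L); SKOV3ip1-GFP, 1,200 cells/well, no FBS; primary omental fibroblast/mesothelial co-culture 48 h pre-grown; 2 h RT + 16 h 37 C; PBS wash, 4% PFA; GFP count 488/509 nm.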

Activity change, negative = inhibition, inactive:
CCc1ccc(NC(=O)CC(NCc2cccnc2)C(=O)O)cc1 (stereo not given) 7.76%
CCOC(=O)c1c(C)oc2ncnc(Nc3cccc(C(F)(F)F)c3)c12 4.35%
CCOC(=O)c1cccc(NC(=O)Cn2ncc3c(=O)oc4ccccc4c32)c1 6.15%
Cn1c(=O)c2c(nc(SCC(=O)Nc3ccccc3F)n2Cc2ccccc2F)n(C)c1=O -1.27%
COc1ccc(CNC(=O)C(=O)NCC(c2ccco2)S(=O)(=O)c2ccc(Cl)cc2)cc1 (stereo not given) -6.86%
Cc1nc(-c2ccc(Cl)cc2)sc1CCNC(=O)C(=O)Nc1ccc2c(c1)OCO2 1.64%
Cc1ccc(NC(=O)c2ccc3c(c2)NC(=O)c2ccccc2S3)c(Cl)c1 -6.57%
CCOc1ccccc1Nc1sc(C(=O)c2ccccc2)c(N)c1C(=O)Nc1ccc(F)cc1 -11%
CC(C)COc1ccc(C(=O)N2CCCCC2CCN2CCOCC2)cc1 (stereo not given) 14.2%
COc1ccc(OC)c(CCNC(=O)c2nc(-c3ccc(Cl)cc3)n3c2CCCCC3)c1 2.7%
Cc1cccc(-c2nn(C(=S)Nc3ccccc3)cc2-c2ccnc3ccccc23)n1 10%
Cc1c(C)n(Cc2ccc(Cl)cc2)c2ccc(C(=O)N3CCN(c4ccccc4F)CC3)cc12 4.88%
Cc1ccc(C(=O)c2oc3ccccc3c2NC(=O)COc2ccc(Cl)c(C)c2)cc1 0.313%
Cc1ccc(C(=O)CSc2nc(C)cc(C)c2C(=O)Nc2cccc(C)c2)cc1 -0.245%
CCc1cccc(CC)c1NC(=O)CN(C)S(=O)(=O)c1ccc2c(c1)n(C)c(=O)c(=O)n2C 5.19%
CSc1nn(Cc2ccc(F)cc2)c(N(C(C)=O)C(C)=O)c1S(=O)(=O)c1ccccc1 0.615%
CCC(=O)N1CCc2cc(Br)cc(S(=O)(=O)N3CCCC(C(=O)NCc4ccc(C)cc4)C3)c21 (stereo not given) 35.7%
Cc1ccc(-n2c3nc(=O)n(C)c(=O)c-3cc3ccccc32)c(C)c1 -0.132%
Cc1cccc(NC(=O)CSc2cn(CC(=O)N3CCOCC3)c3ccccc23)c1C -6.43%
Cc1ccc2nc(COc3ccccc3NC(=O)Nc3ccc(F)c(Cl)c3)cc(=O)n2c1 5.97%
CC(=O)N1CCCc2ccc(NC(=O)c3ccc(OC(C)C)cc3)cc21 4.76%
Cc1nc2c3ccccc3nc(NNC(=O)CCC(=O)N3CCN(c4ccc(F)cc4)CC3)n2n1 0.0808%
O=C(Nc1ccc(OC(F)(F)F)cc1)c1cc(-c2ccc(Cl)cc2)on1 4.7%
Cc1cc2c(cc1S(=O)(=O)NCc1ccc(F)cc1)OCCN2C -2.22%
CCCCN(Cc1cc2cc(C)ccc2[nH]c1=O)C(=O)c1cccc(Cl)c1 0.158%
CCc1ccc(NC(=O)Cn2ncn3c(cc4ccccc43)c2=O)cc1 -7.02%
Cc1ccc2c(=O)cc(C(=O)Nc3c(C)cccc3C)oc2c1 -8.67%
COc1ccc(/C=C/c2nc(C#N)c(N3CCCCC3)o2)cc1OC -19%
COc1cccc2cc(-c3nc4sc5c(c4c(=O)[nH]3)CCC(C(C)(C)C)C5)c(=O)oc12 (stereo not given) 6.92%
COc1ccc(S(=O)(=O)c2c(Nc3cccc(Cl)c3)sc(C(=O)c3ccccc3)c2N)cc1 2.89%
Cc1ccc2nc(Cl)c3cc(C(=O)N4CCCCC4)sc3c2c1 -15.7%
COC(=O)c1cc(S(=O)(=O)NCC2CCN(Cc3cccc(F)c3)CC2)cn1C 5.59%
CNC(=O)C1CCC(Cn2c(=O)c3sccc3n(CC(=O)N3CCC(C)CC3)c2=O)CC1 (stereo not given) 14.6%
Cn1c(=O)c2c(nc(SCC(=O)Nc3ccc(F)c(F)c3)n2Cc2ccccc2F)n(C)c1=O -2.55%
COc1ccc(CCNC(=O)c2cc(=O)c3cc(C)c(C)cc3o2)cc1OC -5.84%
COc1ccc(N2CCN(Cc3nc4c(c(=O)[nH]c(=O)n4C)n3Cc3ccccc3F)CC2)cc1 4.34%
COc1ccc(N(C(=O)Cn2nnc3ccccc32)C(C(=O)NCc2ccccc2)c2ccc(F)cc2)cc1 (stereo not given) -6.97%
Cn1nnc2c(NCc3c(F)cccc3F)ncnc21 -27.2%
COc1ccc(CCNC(=O)C(=O)NCC(c2cccs2)S(=O)(=O)c2ccc(F)cc2)cc1 (stereo not given) 3.45%
O=C(NCCc1ccc(Cl)cc1)C1CCN(S(=O)(=O)c2ccc3[nH]ccc3c2)CC1 7.73%
CCOC(=O)c1c(C)oc2nc(C)nc(NCCCN3CCN(c4cc(C)ccc4C)CC3)c12 -2.55%
Cc1ccc(CCNC(=O)c2ccc(Nc3nc4ccccc4n4nnnc34)cc2)cc1 1.63%
COc1cccc(/C=C/c2nc(C#N)c(N3CCN(C)CC3)o2)c1 -1.71%
FC(F)(F)c1cccc(Nc2c3c(nc4ccc(Cl)cc24)CCC3)c1 -6.04%
CC(NC(=O)c1ccc2c(c1)sc1nc(-c3ccc(F)cc3)cn12)C12CC3CC(CC(C3)C1)C2 (stereo not given) 6.25%
COc1cc(OC)c(NC(=O)CCc2c(C)nc3c4c(C)cc(C)nc4nn3c2C)cc1Cl -1.44%
CCCCCN1C(C(=O)c2ccccc2)=C(OC(=O)CC)c2ccccc2S1(=O)=O -23.3%

outcome, inactive:
CSc1ccc(CCNC(=O)Cn2nc(C)n3c(cc4sccc43)c2=O)cc1
Cc1nn(CC(=O)NC2CC2)c(=O)c2cc3cc(F)ccc3n12
Cc1ccc(Cn2ccnc2SCC(=O)NCc2ccccc2)cc1
COc1cc(C2CC(=O)Nc3cc4c(cc32)OCO4)cc(OC)c1O (stereo not given)
COc1cccc(CNC(=O)C2CCCN(c3nnc(-n4c(C)ccc4C)s3)C2)c1OC (stereo not given)
CCSc1nc(-c2ccc(OC)cc2)nc2c1Cc1c(CO)cnc(C)c1O2
Cc1cc(C)c(Cn2c(=O)n(CCCC(=O)NCc3ccc4c(c3)OCO4)c(=O)c3sccc32)c(C)c1
Cn1c(=O)c2c(-c3ccc(Cl)cc3)n(CCc3ccccc3)cc2n(C)c1=O
Cc1ccc(-n2ncc(C(=O)NCc3ccco3)c2C2CCN(C(=O)OC(C)(C)C)CC2)cc1
COc1ccc(-c2noc(CNC(=O)COc3cccc(C)c3C)n2)cc1
O=C(COCc1cc(-c2ccc3c(c2)OCO3)on1)Nc1cc(Cl)ccc1O
COc1ccc(-c2nc(CSCC(=O)NCc3ccccc3Cl)c(C)o2)cc1OC
COc1cc(NC(=O)C2CCN(S(=O)(=O)c3c(C)noc3/C=C/c3ccccc3F)CC2)cc(OC)c1OC
